Test results from paper PMC6919601, “Identification of Plasmodium dipeptidyl aminopeptidase allosteric inhibitors by high throughput screening” (PLoS ONE, 2019).
Among all 110,000 compounds or so, about 230 (0.21%) showed an effect of 50% or more. The list shows a part of the results.

target: DPAP1 (Plasmodium falciparum, UniProt Q8IIJ9); test: primary screen, percent inhibition; read by cleavage of a fluorogenic dipeptide substrate; higher = more effect of the substance; parameters: species or system P. falciparum D10 trophozoite lysates; single well
Sequence (Q8IIJ9 whole entry, looked up): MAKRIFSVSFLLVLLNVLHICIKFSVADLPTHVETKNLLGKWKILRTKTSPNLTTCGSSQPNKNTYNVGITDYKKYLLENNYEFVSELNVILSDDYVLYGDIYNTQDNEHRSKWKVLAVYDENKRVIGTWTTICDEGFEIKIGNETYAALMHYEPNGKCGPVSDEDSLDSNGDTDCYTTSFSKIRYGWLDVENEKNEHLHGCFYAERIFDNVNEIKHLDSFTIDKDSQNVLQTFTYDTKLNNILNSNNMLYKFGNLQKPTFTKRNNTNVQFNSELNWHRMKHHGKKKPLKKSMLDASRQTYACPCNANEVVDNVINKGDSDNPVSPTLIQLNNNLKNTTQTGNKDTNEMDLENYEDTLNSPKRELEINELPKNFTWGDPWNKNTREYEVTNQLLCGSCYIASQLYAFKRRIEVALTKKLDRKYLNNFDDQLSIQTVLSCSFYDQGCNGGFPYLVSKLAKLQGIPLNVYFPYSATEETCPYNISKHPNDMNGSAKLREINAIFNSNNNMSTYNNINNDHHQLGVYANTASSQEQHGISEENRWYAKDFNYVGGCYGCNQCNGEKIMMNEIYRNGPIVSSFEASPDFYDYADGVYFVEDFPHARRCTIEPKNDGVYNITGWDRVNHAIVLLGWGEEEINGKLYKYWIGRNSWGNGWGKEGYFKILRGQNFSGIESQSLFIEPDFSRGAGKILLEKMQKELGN
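Further: 30 min substrate incubation versus DMSO and 10 µM JCP410 controls.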

SMILES	% Inhibition @ 10 uM [%]
CN(CC(O)c1ccccc1)CC1CC2C=CC1C2 (stereo not shown)	-1.75
Cc1cc(OCCCc2c(C)n[nH]c2C)ccc1Cl	-2.18
Cc1cc(=O)n2nc(N3CCCC(C(=O)NCCC4=CCCCC4)C3)sc2n1 (stereo not shown)	4.55
Cc1cc(C)c2c(n1)sc1c3c(c(O)nc12)C(c1cccnc1)C(C#N)=C(N)O3 (stereo not shown)	4.28
CC(CCc1ccccc1)NC(=O)Nc1cccs1 (stereo not shown)	-5.15
CN(CC(=O)NC1CCCc2ccccc21)S(=O)(=O)c1cccc2nsnc12 (stereo not shown)	2
Cc1nc(S)c(C#N)c(-c2cccs2)c1C(=O)Nc1ccccc1	36.8
Fc1ccccc1N1CC(c2ccccc2)C(c2cccs2)=N1 (stereo not shown)	-3.8
CCOC(=O)N1CCC(NC2CCCCCCC2)CC1	-2.95
O=C(c1ccc(CS(=O)(=O)c2ccc(Br)cc2)o1)N1CCN(C2CCCCC2)CC1	2.35
CC(=O)N1CC[C@@]2(O)CCCC[C@@H]2[C@H]1c1cc([N+](=O)[O-])ccc1O	-1.07
CC(=O)N1CCC(N2CCN(c3cccc(Cl)c3)CC2)CC1	-3.5
Cn1c(SCc2ccon2)nc2ccccc2c1=O	0.231
CCOC(=O)c1c(C)oc2c1c(CN1CCN(CC)CC1)c(O)c1ccccc12	0.343
CCOC(=O)c1c(C)n(C)c2ccc(O)c(CN(CC)CC)c12	-4.58
O=C(O)C1CC=CCC1C(=O)Nc1ccc(N2CCN(c3cccc(Cl)c3)CC2)cc1 (stereo not shown)	-0.95
N#CC1=C(N)Oc2c(c(O)nc3nc(Nc4ccccc4)sc23)C1c1ccc(Cl)cc1 (stereo not shown)	-1.6
CC(=O)Nc1sc2c(c1C(=O)O)CCCC2	-2.18
Cc1n[nH]c(C)c1CCCCCCOc1ccc(Br)cc1	1.35
CCO/C=N/C1=C(C#N)C(c2ccc(Cl)cc2)C2=C(CC(C)(C)CC2=O)O1 (stereo not shown)	-0.25
COc1cccc(-c2cc(C(F)(F)F)nc(-n3cc(C)c(=O)[nH]c3=O)n2)c1	-7.15
COc1ccc(NC(=O)COc2ccccc2OC)cc1	2.27
CC1CCN(C(=O)c2cc(-c3ccc4c(c3)OCO4)on2)CC1	-0.591
Cc1ccccc1OCC(=O)Nc1cc(N)cc(Oc2ccccc2)c1	3.17
COc1ccccc1OCC(=O)N1CCN(c2ccccc2OC)CC1	-3.04
N#CCNC(=O)C(CCS(=O)(=O)c1ccccc1)CCS(=O)(=O)c1ccccc1	-3.49

SMILES	% Inhibition @ 10 uM [%]
CC(C)Sc1nc2ccc(N3C(=O)C4CCCCC4C3=O)cc2s1 (stereo not shown)	-4.8
Cc1sc(NC(=O)c2ccnn2C)c(C(N)=O)c1-c1ccc(Cl)cc1Cl	-0.318
COc1cccc(CNc2nc3ccc(Cl)cc3n3cnnc23)c1	-2.25
O=C(O)C1C2C=CC(C2)C1C(=O)NCCCN1CCOCC1 (stereo not shown)	-12.6
Clc1ccc(-c2noc(CSc3nc4ccccc4[nH]3)n2)cc1	2.31
CC1=CC(=C(C#N)C#N)C=C(C)N1CCO	0.587
CCOc1ccccc1C1C(C#N)=C(N)Oc2[nH]nc(-c3ccc4c(c3)OCO4)c21 (stereo not shown)	-8.15
COc1ccccc1CCNCc1c(C(=O)O)n(Cc2ccc(C)cc2)c2cc(C)ccc12	2.6
O=C(NCC(=O)N1CCCCC1)c1ccccc1	-1.98
CCSc1nc(-c2ccccc2)cc(-c2ccccc2OC)c1C#N	-3.77
CCOc1ccc(C(=O)C2=C(O)C(=O)N(c3nccs3)C2c2cccc(Oc3ccccc3)c2)cc1 (stereo not shown)	-1.25
Cc1cc(C)c2nc3s/c(=C\c4ccc(F)cc4)c(=O)n3c2c1	2.92
CC(=O)Nc1ccccc1SCC(=O)Nc1cc(C)c(C)cc1Br	1.17
COc1ccc(C(=O)Nc2ccccc2C(=O)NCCCCO)cc1	1.59
O=C(O)CCc1ccc(-c2cccs2)n1NC(=O)c1ccccc1Br	4.74
Cc1ccc(NC(=O)CN(c2cccc(Cl)c2)S(C)(=O)=O)cc1C	3.53
O=C(/C=C/c1ccc(Cl)cc1)N1CCCCC1	4.54
Cc1ccc2nc3c(nc2c1)[nH]c1ccccc13	3.25
N#CCNC(=O)[C@@H](Cc1ccco1)NC(=O)OCc1ccccc1	0.079
O=C(Nc1ccc(F)cc1)/C(=C/c1ccccc1Cl)NC(=O)c1ccccc1	-8.63
COc1ccc(C2=NN(c3ccccc3)CC2)cc1	-6.25
N=C1/C(=C\c2coc3ccccc3c2=O)C(=O)N=C2SC(C34CC5CC(CC(C5)C3)C4)=NN12	-3.95
CCC(=O)N1CC23C=CC(CC2CC12CCCCC2)O3 (stereo not shown)	19.4
CCCN1CCC(N2CCC(O)CC2)CC1	2.7
CCc1ccc(S(=O)(=O)c2nnn3c2nc(N2CCN(C)CC2)c2sccc23)cc1	2.72
COCCNC(=O)CC12CC3CC(C1)CC(CC(=O)NCCOC)(C3)C2	1.84
